What all share (assay): Primary Screen for Target Class Profiling of Small Molecule Inhibitors of Methyltransferases
Test [1] has as its target Glycine N-methyltransferase (Homo sapiens) (UniProt Q14749). To be noted: purified enzyme, MTase-Glo SAH luminescence; measured here: GNMT inhibition; at 40 µM; stronger effect = lower value. In a few lines:
(§1)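 Each enzyme was reacted with SAM and its substrate, with compounds tested once at 40 uM; SAH formed was read by MTase-Glo luminescence.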

Test [2] has as its target Guanidinoacetate N-methyltransferase (Homo sapiens) (UniProt Q14353). The conditions noted are these: purified enzyme, MTase-Glo SAH luminescence; measured here: GAMT inhibition; at 40 µM; stronger effect = lower value. Put shortly: as §1
The target of test [3] is Histamine N-methyltransferase (Homo sapiens) (UniProt P50135). To be noted: purified enzyme, MTase-Glo SAH luminescence; measured here: HNMT inhibition; at 40 µM; stronger effect = lower value. Put shortly: as §1
For test [4], the target named is Nicotinamide N-methyltransferase (Homo sapiens) (UniProt P40261). The conditions noted are these: purified enzyme, MTase-Glo SAH luminescence; measured here: NNMT inhibition; at 40 µM; stronger effect = lower value. Put shortly: as §1
Test [5] deals with Phenylethanolamine N-methyltransferase (Homo sapiens) (UniProt P11086). The conditions noted are these: purified enzyme, MTase-Glo SAH luminescence; measured here: PNMT inhibition; at 40 µM; stronger effect = lower value. In a few lines: as §1

This is one part of the list. Further columns of the screen follow, without active or inactive calls.
On the % scale 0 is the no-effect control and ±100 the full control effect.

For `COCC1CN(C)CC12CCN(C1CCOCC1)CC2` (configuration not stated), the activity change, negative = inhibition in test [1] is -2.34%; in test [2], -9.33%; in test [3], -2.75%; in test [4] it was -3.14%; in test [5], -1.64%.

For `CCCCN1CCN(C(=O)c2cn3ccnc(-c4ccccc4)c3n2)CC1`, the activity change, negative = inhibition in test [1] is -3.84%; in test [2], 0.172%; in test [3], -4.96%; in test [4], 1.04%; in test [5], 1.38%.

Take `COc1cccc(CN2C(=O)c3ccc(-c4ccco4)n3CC2(C)C(=O)NC2CCCCC2C)c1` (configuration not stated): the activity change, negative = inhibition came out at 0.928% in test [1]; 0% in test [2]; 9.73% in test [3]; 8.98% in test [4]; 4.09% in test [5].

In the case of `CCOc1ccc(C(=O)Cn2nc3n(CC(C)C)c(=O)c4ccc(C(=O)NC(C)C)cc4n3c2=O)cc1`, the activity change, negative = inhibition came out at 8.18% in test [1]; 1.31% in test [2]; 5.45% in test [3]; 8.08% in test [4]; 7.87% in test [5].

Consider `CC1(C(=O)NC2CCCCCC2)Cn2c(cc3ccccc32)C(=O)N1Cc1ccc2c(c1)OCO2` (configuration not stated), for which the activity change, negative = inhibition in test [1] is 3.71%; in test [2], 0%; in test [3], 3.51%; in test [4], -8.38%; in test [5] it was -0.629%.

On to `COc1ccccc1OC1(C(=O)O)CCN(C(=O)CC2CC2)CC1`, for which the activity change, negative = inhibition in test [1] is -3.67%; in test [2], -5.87%; in test [3] it was -3.26%; in test [4], -4.71%; in test [5], 0.44%.

On to `O[Si](CCCN1CCCCC1)(c1ccc(F)cc1)C1CCCCC1` (configuration not stated), for which the activity change, negative = inhibition in test [1] was 3.68%; in test [2], 11.8%; in test [3], 0.085%; in test [4], -6.92%; in test [5], 7.58%.

`COCC1CN(C2CCC2)CC12CCN(C(=O)c1ccnn1C)CC2` (configuration not stated): the activity change, negative = inhibition is -3.38% in test [1]; -3.52% in test [2]; -7.91% in test [3]; -5.77% in test [4]; 1.2% in test [5].

As to `CN(C)C(=O)N1CCC(c2nc(C3CCOC3)n[nH]2)CC1` (configuration not stated), the activity change, negative = inhibition in test [1] was -3.89%; in test [2], -9.15%; in test [3], -2.12%; in test [4], -10.4%; in test [5], -7.58%.

As to `Cn1c(=O)n(C)c2cc(S(=O)(=O)NC3CC3)ccc21`, the activity change, negative = inhibition in test [1] worked out at 12%; in test [2], 0%; in test [3], 7.44%; in test [4] it was 1.97%; in test [5], 3.57%.

Turning to `CC(C)CCN1CCC(N2CCN(C(=O)c3ccc(Br)o3)CC2)C1=O` (configuration not stated), the activity change, negative = inhibition in test [1] is -5.5%; in test [2], -5.76%; in test [3], -1.75%; in test [4] it was -9.89%; in test [5], -5.45%.

Regarding `NC1(C(=O)NC(CCO)c2ccc(Cl)cc2)CCN(c2ncnc3[nH]ccc23)CC1` (configuration not stated), the activity change, negative = inhibition in test [1] was -3.07%; in test [3] it was 5.03%.

For the molecule `COc1cccc(CN2CCCC(c3nc(-c4cccnc4)no3)CCNC(=O)CC2)n1` (configuration not stated), the activity change, negative = inhibition was -5.66% in test [1]; -3.36% in test [2]; -2.48% in test [3]; -8.4% in test [4]; 0.428% in test [5].

`CCc1noc([C@@H]2CC(F)(F)CN2C(=O)Cc2cccnc2)n1`: the activity change, negative = inhibition in test [1] was -0.603%; in test [2], -4.69%; in test [3], 2.27%; in test [4], -2.29%; in test [5] it was -1%.

`CCCn1c(=O)c2ccc(C(=O)NC3CCCCC3)cc2n2c(=O)n(CC(=O)c3ccccc3)nc12`: the activity change, negative = inhibition was -1.7% in test [1]; -3.12% in test [2]; 0.224% in test [3]; -6.24% in test [4]; -4.96% in test [5].

Take `CCOC(=O)c1cc2n(n1)CC(C)(C(=O)NC1CCCC1)N(c1ccc(F)cc1C)C2=O` (configuration not stated): the activity change, negative = inhibition in test [1] worked out at 7.52%; in test [2], 0%; in test [3] it was 8.33%; in test [4], 2.04%; in test [5] it was 3.91%.

`O=C(O)CCc1conc1-c1ccc(F)cc1`: the activity change, negative = inhibition in test [1] is -1.11%; in test [2], -6.78%; in test [3] it was -0.757%; in test [4], 1.48%; in test [5] it was 0.29%.

On to `CCc1cc2c(cc3n2CC(C)(C(=O)NC2CCCCCC2)N(C2CCCCC2)C3=O)s1` (configuration not stated), for which the activity change, negative = inhibition is -1.63% in test [1]; 4.55% in test [2]; -1.28% in test [3]; -3.92% in test [4]; -6.29% in test [5].

As for `CN(C)c1ccc(C(=O)N[C@H]2C[C@H]3C(=O)NC[C@@H](CCC(=O)N4CCc5ccccc54)N3C2)cc1`, the activity change, negative = inhibition in test [1] is -10.5%; in test [2], -4.06%; in test [3], -3.88%; in test [4] it was -12.9%; in test [5], -6.26%.

With `O=C1CO[C@H]2CN(c3ncccn3)C[C@H]2N1CC1CCCCC1`, the activity change, negative = inhibition in test [1] is -12.5%; in test [2] it was -10%; in test [3] it was -5.58%; in test [4], -25.1%; in test [5], -19.7%.

With `Cc1ccc(C)c(N2CCN(C(=O)CCc3nnc4n(Cc5ccccc5)c(=O)c5ccccc5n34)CC2)c1`, the activity change, negative = inhibition in test [1] is 1.08%; in test [2], -0.291%; in test [3] it was -2.02%; in test [4], -0.95%; in test [5], -4.01%.

Turning to `CC1(C(=O)NC2CCCC2)Cn2c(ccc2-c2ccccc2)C(=O)N1CCCc1ccccc1` (configuration not stated), the activity change, negative = inhibition was -5.33% in test [1]; -0.958% in test [2]; -2.87% in test [3]; -1.02% in test [4]; -1.9% in test [5].

For the molecule `COc1ccc(-c2cc3n(n2)CC(C)(C(=O)NCc2ccccc2OC)N(c2ccc(Cl)cc2)C3=O)cc1` (configuration not stated), the activity change, negative = inhibition in test [1] is 3.38%; in test [2], 0%; in test [3], 5.62%; in test [4], 0.573%; in test [5] it was -0.374%.

Take `COc1cccc(NS(=O)(=O)c2ccc3c(c2)N(C)C(=O)CC(=O)N3C)c1`: the activity change, negative = inhibition in test [1] came to 4.59%; in test [2] it was 2.96%; in test [3] it was 9.06%; in test [4] it was 9.52%; in test [5], 2.08%.

As to `O=C1CC2(CCCC2)[C@H](O)C(=O)N1CCCCN1CCN(c2ncccn2)CC1`, the activity change, negative = inhibition in test [1] is -5.08%; in test [2], -14%; in test [3], -2.22%; in test [4], -21.4%; in test [5] it was -8.37%.

Take `CC(C)Cn1c(=O)c2ccccc2n2c(=O)n(CC(=O)Nc3ccc(F)cc3)nc12`: the activity change, negative = inhibition in test [1] is -4.15%; in test [2], 2.58%; in test [3], 1.55%; in test [4], -9.06%; in test [5], -5.09%.

In the case of `O=C(Nc1ccc(Oc2cccnc2)cc1)C1CCN(CCCc2ccccc2)CC1`, the activity change, negative = inhibition in test [1] is -3.46%; in test [2], 2.17%; in test [3], -16.5%; in test [4], -16.4%; in test [5], -2.69%.

`CCCn1ncc(C(=O)NCC2(O)CCCNC2)c1C` (configuration not stated): the activity change, negative = inhibition was -6.49% in test [1]; -10.9% in test [2]; -5.92% in test [3]; -16.2% in test [4]; -12.1% in test [5].

Consider `Cc1ccc(C(=O)N2C[C@@H](CN3CCOCC3)[C@@H](CO)C2)cc1O`, for which the activity change, negative = inhibition in test [1] is 1.14%; in test [2], 2.81%; in test [3] it was 2.41%; in test [4], -4.39%; in test [5], 10.3%.

Take `CCOc1ccc(CN2C(=O)c3c(C(=O)OC)ncn3CC2(C)C(=O)NC2CCCCCC2)cc1` (configuration not stated): the activity change, negative = inhibition in test [1] amounted to 7.6%; in test [2], 0.844%; in test [3], 7.37%; in test [4], 2.68%; in test [5], 6.05%.

Source of the values: PubChem BioAssay AID1745853 (National Center for Advancing Translational Sciences (NCATS), 2022).
